About 14,000 (4.5%) of roughly 310,000 compounds showed an effect of 50% or more. Effects have a minus sign here. The list shows a part of the results.
Biological target: human ether-à-go-go-related gene (hERG) potassium channel (human, UniProt Q12809)
Assay: primary screen, population patch clamp on CHO cells stably expressing hERG
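Further: peak tail current of the secondary pulse compared with the same well before compound.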

Sequence of human ether-à-go-go-related gene (hERG) potassium channel (Q12809 whole entry, looked up): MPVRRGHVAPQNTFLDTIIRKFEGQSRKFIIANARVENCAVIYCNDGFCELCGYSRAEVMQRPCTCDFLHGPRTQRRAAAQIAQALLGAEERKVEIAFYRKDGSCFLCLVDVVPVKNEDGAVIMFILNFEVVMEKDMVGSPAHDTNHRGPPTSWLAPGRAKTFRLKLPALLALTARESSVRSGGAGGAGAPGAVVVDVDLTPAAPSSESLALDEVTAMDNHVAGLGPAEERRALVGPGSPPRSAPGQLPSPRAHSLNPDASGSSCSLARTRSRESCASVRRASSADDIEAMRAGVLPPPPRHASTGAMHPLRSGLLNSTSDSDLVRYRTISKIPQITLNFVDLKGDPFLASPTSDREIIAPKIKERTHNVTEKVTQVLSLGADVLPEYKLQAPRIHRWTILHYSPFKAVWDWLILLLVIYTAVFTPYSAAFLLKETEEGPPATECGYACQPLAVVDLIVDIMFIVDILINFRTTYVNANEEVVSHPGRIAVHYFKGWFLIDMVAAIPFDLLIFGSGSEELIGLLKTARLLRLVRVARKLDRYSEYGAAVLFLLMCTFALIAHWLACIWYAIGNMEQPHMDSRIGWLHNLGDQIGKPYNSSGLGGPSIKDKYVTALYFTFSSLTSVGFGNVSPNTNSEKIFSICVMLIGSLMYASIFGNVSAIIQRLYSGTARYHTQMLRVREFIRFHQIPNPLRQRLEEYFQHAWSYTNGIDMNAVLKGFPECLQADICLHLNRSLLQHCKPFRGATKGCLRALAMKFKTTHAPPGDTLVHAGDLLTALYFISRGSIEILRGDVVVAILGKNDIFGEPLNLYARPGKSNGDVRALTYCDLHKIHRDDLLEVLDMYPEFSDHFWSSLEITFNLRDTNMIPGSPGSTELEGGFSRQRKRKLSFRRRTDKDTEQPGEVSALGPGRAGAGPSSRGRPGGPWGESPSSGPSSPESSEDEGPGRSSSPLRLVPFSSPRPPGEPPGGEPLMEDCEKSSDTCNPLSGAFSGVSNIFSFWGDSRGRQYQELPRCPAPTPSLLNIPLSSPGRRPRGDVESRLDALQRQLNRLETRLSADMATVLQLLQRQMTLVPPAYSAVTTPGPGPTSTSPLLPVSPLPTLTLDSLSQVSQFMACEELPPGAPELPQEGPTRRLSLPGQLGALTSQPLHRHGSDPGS

SMILES	hERG current change (%, negative = inhibition) at 10uM [%]
COc1ccc(C(=O)Nc2ccc(NC(C)=O)cc2)cc1S(=O)(=O)N1CCCCC1C (centres unmarked)	1.47
Nc1cc(=O)[nH]n1C1CCCCC1	19.7
CCN(CC)CCN1CNC(=S)N(c2ccccc2OC)C1	8.53
C/C(=N/NC(=O)CNC(=O)c1cccnc1)c1cccc([N+](=O)[O-])c1	2.99
CN(c1ccc(OC(=O)CN2C(=O)NC3(CCCC3)C2=O)cc1)S(=O)(=O)c1ccccc1	16.7
COc1ccc(N=C2SC(CC(=O)Nc3ccccc3OC)C(=O)N2Cc2ccco2)cc1 (centres unmarked)	11.2
COc1ccc(/C=N/n2cnc3c([nH]c4ccc(Br)cc43)c2=O)cc1CN1CCOCC1	-8.88
O=C(Nc1nc2c(s1)CN(Cc1ccccc1)CC2)C1CCC1	0.548
N/C(=N\OC(=O)/C=C/c1ccccc1)c1ccc(Br)cc1	4.83
Nc1ccccc1C(=O)NCc1ccc(F)cc1	35.8
O=C(Nc1ccccc1)c1cccc(N2C(=O)CCC2=O)c1	-4.84
Cc1cc(OCC(=O)Nc2cc(C(C)(C)C)on2)ccc1[N+](=O)[O-]	-24.3
COc1cc(CC(=O)N(C)CC(=O)Nc2ccc(Cl)c(C(F)(F)F)c2)cc(OC)c1OC	-16.2
CCOC(=O)CCCSc1nnc(CCCCCN2C(=O)c3cccc4cccc(c34)C2=O)o1	-17.7
NC(=S)N/N=C1\c2ccccc2-c2c(C(=O)O)cccc21	12.7
COc1ccc(C(=O)COc2ccc3ccc(=O)oc3c2)c(OC)c1	8.43
O=S(=O)(Nc1ccc(O)c2ccccc12)c1ccc(F)cc1	14.3
C=CCN=C1CC(C)(C)CC(=O)/C1=C(\O)c1ccccc1	-6.18
CCOc1ccc(-c2cc(CCCC(=O)N3CCN(c4ccc(OC)cc4)CC3)no2)cc1	10.3
Cc1ccc(N)cc1NC(=O)CN1CCOCC1	13.5
CC(C)C(NC(=O)/C=C/c1ccc(F)cc1)C(C)C	16.1
COc1ccc(CSc2n[nH]c(C)n2)cc1Br	10.5
O=C1CCC(/C=C/c2ccccc2)=NN1Cc1ccc(Cl)c(Cl)c1	-1.15

SMILES	hERG current change (%, negative = inhibition) at 10uM [%]
CCc1ccccc1NC(=O)CN1CCN(C(=O)CNC(=O)c2ccc(N3CCCC3=O)cc2)CC1	-3.9
O=C(Nc1ccccc1N1CCOCC1)C1Cc2ccccc2CN1C(=O)c1ccco1 (centres unmarked)	-32.4
CC(C)=CC(=O)Nc1ccc(S(=O)(=O)Nc2onc(C)c2C)cc1	27.8
O=C(Nc1ccccc1Cl)NC1(C(=O)NCc2ccncc2)CCCCC1	13.7
CCOC(=O)c1ccc(COc2ccc(C(C)C)cc2)o1	-13.1
COCCn1c(-c2ccccc2F)n[nH]c1=S	21.5
COc1ccccc1CN1CC(C(=O)N(C)CCc2nc3ccc(F)cc3[nH]2)CCC1=O (centres unmarked)	10.1
Cn1cc(C(=O)c2ccc(F)cc2)cc1-c1nc2ccccc2n1C	-50.5
CNC(=S)N1N=C(c2ccc(OC)cc2)CC1c1ccc(N(C)C)cc1 (centres unmarked)	-1.59
COc1ccc(CNCc2cc(C)c(OC)cc2C)c(OC)c1.O=C(O)C(=O)O	-54.9
Cc1ccc(NC(Cc2cc(C)no2)c2ccccc2)cc1 (centres unmarked)	-33
CC1(C)OC(C)(C)/C(=C/Nc2ccccc2)C1=O	10.2
COc1ccccc1N1CCN(CC(=O)N(CC(C)C)c2c(N)n(CC(C)C)c(=O)[nH]c2=O)CC1	-2.1
CCOC(=O)c1c(C)[nH]c(C)c1S(=O)(=O)N1CCN(c2ccc([N+](=O)[O-])cc2)CC1	-29.6
CCCCN(C)C(=O)c1nc2ccccn2c1CNC1CCC1	-18.2
CCOC(=O)CCNC(=O)N1CCCC(Cc2ccccc2)(C(=O)OCC)C1 (centres unmarked)	2.55
O=C(Nc1ccccc1)N1CCC(C(=O)N2CCN(c3ccccc3F)CC2)CC1	-1.31
O=C(O)CCC(=O)Nc1ccc(N2CCOCC2)cc1	12.6
O=C(c1ccc(-c2ccccc2)cc1)c1ccccc1C(=O)N1CCOCC1	-23.7
O=C(COC(=O)c1cc(-c2cccs2)nn1-c1ccccc1)Nc1cc([N+](=O)[O-])ccc1Cl	0.0191
O=c1cc(N2CCc3ccccc32)[nH]c(=O)n1-c1ccccc1	9.72
Cc1cc(Br)ccc1NC(=O)CNC(=O)c1ccc(-n2cncn2)c([N+](=O)[O-])c1	-59.9
COc1ccc(C(=O)NC(=S)NCc2cccnc2)cc1OC	-57.3

SMILES	hERG current change (%, negative = inhibition) at 10uM [%]
Cc1ccc(C(=O)N2N=C(c3ccccc3)CC2(O)C(F)(F)F)o1 (centres unmarked)	10
CCOc1ccc(N2C(=O)CC(Sc3nccc(C)n3)C2=O)cc1 (centres unmarked)	-13.2
CCc1cccc(NS(=O)(=O)c2ccc3c(c2)NC(=O)CO3)c1	14.6
COC(=O)N/N=C/c1c(C)cc(C)cc1C	4.48
CN1CCC(OC(=O)Cc2ccccc2)CC1.Cl	5.22
Cc1ccc(N2C(=O)C3C4CCC(O4)C3C2=O)c(OC(F)F)c1 (centres unmarked)	-6.32
Cc1ccsc1/C=C(\C#N)C(=O)NCc1ccco1	2.81
CC(c1ccon1)N(C)C(=O)CCc1nnc(CCCCc2ccccc2)o1 (centres unmarked)	-39.2
CCOC(=O)c1cccc(NC(=O)Nc2ccc(OCC)cc2)c1	-1.43
CCn1cc([N+](=O)[O-])c(C(=O)Nc2nc3ccc(OC)cc3s2)n1	19.6
CC1=CC2=NC(=O)CC(C)(C(=O)N(CC(=O)NC(C)(C)C)C3CCCC3)N2C=C1 (centres unmarked)	4.07
c1ccc(-c2nc(-c3cccnc3)n[nH]2)cc1	5.46
O=c1c2cc(Cl)ccc2[nH]c(=S)n1Cc1ccccn1	18.5
COc1ccccc1-c1nnc(C2CCN(S(=O)(=O)c3ccc([N+](=O)[O-])cc3)CC2)o1	-74.6
COc1ccc(N2CCN(C(=O)COC(=O)CCOc3ccc(C(C)(C)C)cc3)CC2)cc1	15.9
C=CCNC(=O)C1CC2Cn3c(nc4cc(C)c(C)cc43)C2N1C (centres unmarked)	-7.6
C=CCOc1ccc(C2N3CC4(C)CN2CC(CCC)(C3)C4=O)cc1 (centres unmarked)	-16.9
CCCCc1cc(=O)oc2cc(C)cc(OCC(=O)Nc3ccccn3)c12	28.6
CCOc1ccc(Nc2nc3ccccc3c(=O)s2)cc1	19.2
CCCCn1c(CNC(=O)C23CC4CC(CC(C4)C2)C3)nnc1SCC(=O)Nc1nnc(C)s1	-10.4
Cc1cc(C)c2c(n1)SCC(=O)N2CC(=O)Nc1ccc(F)cc1	-7.69
COc1ccc(OCC(O)CNC(=O)c2ccc(OC)cc2)cc1 (centres unmarked)	14.9
O=C(Nc1ccc(S(=O)(=O)N2CCCCCC2)cc1)c1[nH]ncc1[N+](=O)[O-]	35.4

SMILES	hERG current change (%, negative = inhibition) at 10uM [%]
Cc1cc(NC(=O)COC(=O)CNC(=O)c2cccs2)c([N+](=O)[O-])cc1C	-21.2
Cc1ccc(-c2nn(-c3ccccc3)cc2CNCc2ccccc2)cc1.Cl	7.42
Cc1ccc(C(=O)NCC(c2ccc(F)cc2)N2CCOCC2)cc1 (centres unmarked)	12.7
N#Cc1ccc(OC(=O)C2CCN(C3=NS(=O)(=O)c4ccccc43)CC2)cc1	4.86
Cc1cccc(C(=O)NNC(=S)NC(=O)c2ccccc2)c1	20.2
COc1ccc(CC(=O)NC(C)c2nnc(SCC(=O)Nc3ccccc3)n2C)cc1 (centres unmarked)	2.5
COc1cccc(OC)c1C(=O)Nc1cc(C)nn1-c1nc2ccccc2[nH]1	7.24
CCCCCn1c(SCC2CCCO2)nc2cc(C(=O)N3CCC(C(N)=O)CC3)ccc2c1=O (centres unmarked)	-64.7
Cc1nc2ccc(NC(=O)c3cc(Cl)ccn3)cc2s1	17.4
O=C(O)CCSSCCC(=O)O	15.4
Cl.OCCN1CCN(c2nc3ccccc3nc2-c2ccccc2)CC1	-10.7
N=C1S/C(=C\c2ccco2)C(=O)N1c1nccs1	11
Cc1ccc(NC(=O)C2(C)Cc3ccccc3C(=O)O2)cc1 (centres unmarked)	-5.03
Cc1nc2ccc(OC(=O)c3ccccc3)cc2s1	7.96
c1ccc(-c2[nH]ncc2CN2CCc3ccccc3C2)cc1	-2.39
CC(C#N)Sc1ccc(S(=O)(=O)N2CCCCC2)cn1 (centres unmarked)	0.0728
COc1ccc(OCCOc2ccc(/C=C3\C(=N)N4N=C(C)SC4=NC3=O)cc2)cc1	6.54
CCc1nc2c(c(=O)[nH]1)C(CC)(CC)Cc1ccccc1-2	-13.8
CC(=O)C1C(c2ccc(C)cc2)c2c(n[nH]c2C)CC1(C)O (centres unmarked)	23.1
CCn1c(CNC(=O)c2cccs2)nnc1SCC(=O)Nc1ccc(Cl)cc1	-57.5
